# Data as given in the supplement of paper PMC4166925.
# ± gives the standard deviation of the averaged measurements. The full ranking holds about 33,000 sequences; the median of “E-score (dimensionless, -0.5 to 0.5)” is about -0.049, and the highest 2% start at about 0.37. Some of the results follow.
# System: T1, PmTbr T-box DNA-binding domain (GST fusion)
# T1 sequence: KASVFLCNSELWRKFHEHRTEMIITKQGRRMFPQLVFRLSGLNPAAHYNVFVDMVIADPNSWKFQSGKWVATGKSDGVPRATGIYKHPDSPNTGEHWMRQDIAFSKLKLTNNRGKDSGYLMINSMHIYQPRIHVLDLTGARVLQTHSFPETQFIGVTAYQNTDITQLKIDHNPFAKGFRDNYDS
# Assay: PBM E-score of 8-mer (E-score (dimensionless, -0.5 to 0.5)); Tbr is Tbrain of the sea star Patiria miniata (Pm) or the sea urchin Strongylocentrotus purpuratus (Sp); higher = stronger binding preference; most listed sequences are background and not binding sites
# Conditions: the construct has about 5 more residues each side
# How it was run: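 Universal Agilent oligonucleotide arrays, made double-stranded by primer extension, were incubated with 200 nM GST-fused Tbr T-box DNA-binding domain in PBS (pH 7.5). The protein was expressed in BL21 E. coli at 20 °C and purified by glutathione affinity chromatography. After scanning and quantification, the Universal PBM Analysis Suite assigned an enrichment E-score to each ungapped 8-mer, averaged over duplicate arrays.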
row,Sequence,PBM E-score of 8-mer
1,AGACACGA,-0.0791 ± 0.023
2,TAACTATA,-0.0788 ± 0.12
3,GCGGCAGC,0.0309 ± 0.0077
4,GCCCAGGA,-0.197 ± 0.0026
5,AATCGAAT,-0.0926 ± 0.029
6,GACTAGCA,0.0457 ± 0.018
7,CTTTAGAA,-0.133 ± 0.058
8,ACGTAGGA,-0.217 ± 0.055
9,ACGCTGTA,0.151 ± 0.022
10,CTATAATC,-0.101 ± 0.028
11,CTGCCGCA,-0.142 ± 0.029
12,CACCCGAA,0.223 ± 0.029
13,AATGCCGA,-0.0849 ± 0.043
14,GTCGTCGA,0.0889 ± 0.015
15,AGCGCCGC,0.117 ± 0.044
16,AGCAGAGA,-0.236 ± 0.089
17,GGCGAAAA,0.0979 ± 0.072
18,ACGAAATG,0.00596 ± 0.0068
19,GAAGTCCA,-0.152 ± 0.012
20,GCATTTAA,-0.00154 ± 0.098
21,CCATCGCG,0.0886 ± 0.0034
22,CCGAGCAC,-0.0347 ± 0.014
23,AGAAGGCA,1.5e-05 ± 0.00087
24,AGTACGCC,-0.159 ± 0.03
25,ACGGTCTC,-0.214 ± 0.0017

row,Sequence,PBM E-score of 8-mer
1,CACATCAG,0.162 ± 0.035
2,GGGTAGTA,-0.2 ± 0.0041
3,ATTAGTCG,-0.073 ± 0.029
4,ACTCCCTA,-0.155 ± 0.06
5,CGGCTTAG,-0.0926 ± 0.017
6,CCTAACAC,0.4369 ± 0.0041
7,AAACTTCT,-0.236 ± 0.043
8,GGCAAGCC,-0.13 ± 0.013
9,AATTTGTG,0.0634 ± 0.039
10,AAGGACAA,-0.0539 ± 0.012
11,AACGCACT,0.0213 ± 0.03
12,CTGGGACA,-0.223 ± 0.073
13,CCGGCTAA,-0.106 ± 0.042
14,GCGTATTA,-0.0361 ± 0.04
15,GTAGCGCA,-0.0861 ± 0.043
16,TAGCGCAA,0.275 ± 0.0038
17,ACGCAGTA,-0.0663 ± 0.018
18,GGATGTCA,0.0662 ± 0.069
19,CTCTGCTA,-0.0752 ± 0.016
20,CCGTGAGA,0.173 ± 0.029
21,ATGCTCAA,-0.254 ± 0.066
22,CACGTTTC,0.232 ± 0.037
23,ATCACTGG,-0.0944 ± 0.042
24,ATCTTGCG,0.00688 ± 0.039
25,GGACACAA,-0.113 ± 0.042

row,Sequence,PBM E-score of 8-mer
1,CAGTCGCG,0.196 ± 0.016
2,CCTACCAC,0.183 ± 0.061
3,ATAGCGGG,0.107 ± 0.034
4,CATCATAG,-0.0931 ± 0.025
5,ATGGGAAC,-0.199 ± 0.059
6,ATTCCGAA,-0.309 ± 0.064
7,CCCTATCG,-0.11 ± 0.042
8,ACTTAGTC,-0.0896 ± 0.017
9,CACGGAAC,-0.00268 ± 0.045
10,TCTAGCAA,0.105 ± 0.0068
11,CGTCCTTC,-0.328 ± 0.055
12,AGAAAGGC,-0.00281 ± 0.027
13,CGTATAGA,-0.109 ± 0.022
14,GCATCTAA,-0.162 ± 0.043
15,ACTTAAAT,-0.228 ± 0.078
16,ACTGTAAG,0.013 ± 0.011
17,TCGTAGCA,0.218 ± 0.016
18,GTGTTAAC,0.438 ± 0.017
19,CGCCCACC,-0.151 ± 0.013
20,TATAGTGA,0.118 ± 0.016
21,GGAGAGAC,-0.121 ± 0.037
22,ACTTAGAC,-0.0159 ± 0.0036
23,GCCCTACA,-0.311 ± 0.022
24,ATAAAGAT,-0.306 ± 0.037
25,AGCTTGTA,-0.179 ± 0.064

row,Sequence,PBM E-score of 8-mer
1,CTATGCGC,0.0229 ± 0.027
2,AGCTCCTA,0.0875 ± 0.0077
3,TCTCGCAA,0.307 ± 0.05
4,GAGCATCA,-0.194 ± 0.035
5,TCTGATCA,-0.102 ± 0.012
6,GAGGGCTA,-0.0569 ± 0.064
7,CAACCTTC,-0.0738 ± 0.037
8,AGTAAGCA,-0.148 ± 0.017
9,GCTTTTCC,-0.257 ± 0.055
10,ACTTTGAT,-0.0929 ± 0.011
11,GAGTGTTA,0.385 ± 0.012
12,AAAGTACA,-0.0134 ± 0.017
13,AGCCGTCC,-0.226 ± 0.0056
14,ACATCCAC,0.1199 ± 0.00095
15,GGTGCTGA,0.367 ± 0.021
16,AAAAATAG,-0.0128 ± 0.043
17,AATGGTAC,-0.0872 ± 0.059
18,CGGCAAGA,-0.0203 ± 0.03
19,ACGGTGCT,0.164 ± 0.072
20,CCGGGTCG,0.0846 ± 0.057
21,GGCACTAA,0.193 ± 0.09
22,ACCGGATG,-0.0972 ± 0.0075
23,AGGATGAT,-0.124 ± 0.032
24,CGACGCGA,0.19 ± 0.026
25,GGCATCCC,-0.17104 ± 0.00013

row,Sequence,PBM E-score of 8-mer
1,GGCTCAGA,-0.154 ± 0.053
2,CCACACAA,0.0617 ± 0.024
3,CGTGGTGA,0.167 ± 0.018
4,ACTAGCAA,0.00762 ± 0.0026
5,CATCCAGA,-0.0251 ± 0.062
6,AGCCCACT,-0.0697 ± 0.041
7,ACCCGATA,0.0682 ± 0.024
8,CGGCGCGA,0.317 ± 0.034
9,GCTGGTAC,-0.158 ± 0.01
10,CCACGCCA,0.0474 ± 0.0034
11,CTTGTAGC,0.0941 ± 0.012
12,ACGCGGAC,0.0056 ± 0.00074
13,GTCGTAGA,-0.234 ± 0.027
14,AGCCCCCT,-0.31 ± 0.029
15,AGTACCTG,-0.0965 ± 0.026
16,CCATTCTA,-0.138 ± 0.0054
17,ACTTCGTG,0.109 ± 0.041
18,ACGCGGCT,-0.00017 ± 0.077
19,AGCTACAT,-0.192 ± 0.037
20,CGAAAATC,0.00722 ± 0.052
21,TATCGTCA,0.093 ± 0.051
22,CGAGATCA,0.0764 ± 0.039
23,CATTGCCA,0.149 ± 0.056
24,CCACTCCA,-0.0105 ± 0.011
25,CTTCGGGA,-0.106 ± 0.052

row,Sequence,PBM E-score of 8-mer
1,CCGCGTGA,0.319 ± 0.023
2,TCAAGCAA,-0.14 ± 0.071
3,AGCCGACG,-0.0152 ± 0.035
4,AAGCGATT,-0.21 ± 0.091
5,CCATAGTC,-0.0666 ± 0.086
6,GAATGGTC,-0.149 ± 0.0021
7,ACAATGGT,-0.00549 ± 0.02
8,ACCTGTAC,-0.144 ± 0.0071
9,AACCCCAA,-0.0877 ± 0.0096
10,ATTCCAGG,-0.137 ± 0.038
11,AGACCTCG,-0.2 ± 0.063
12,CCCGTCCA,-0.24 ± 0.003
13,GATAAGTA,0.00155 ± 0.023
14,GATCCGCA,-0.00764 ± 0.031
15,CCCGCATC,-0.127 ± 0.013
16,CCTGACAA,0.207 ± 0.027
17,CGAACGAC,0.14 ± 0.0089
18,CCAGGGTC,-0.00602 ± 0.0065
19,TACGGCAA,-0.115 ± 0.016
20,AGGCTGTC,0.0531 ± 0.041
21,CATGCGGG,-0.157 ± 0.015
22,CAAGCGTC,0.114 ± 0.014
23,AGGCGGGA,0.0518 ± 0.087
24,ATGGCTAC,-0.222 ± 0.017
25,GAGACATC,-0.188 ± 0.076

row,Sequence,PBM E-score of 8-mer
1,GACTACTA,-0.18 ± 0.041
2,CTATAAGC,-0.0168 ± 0.053
3,AAGAAAAT,0.0406 ± 0.15
4,CAGGTACG,-0.0533 ± 0.12
5,CGCAATCA,0.136 ± 0.0055
6,GCTGCGTA,-0.0658 ± 0.0014
7,GCGCGGAA,0.109 ± 0.0046
8,CAGGTGTA,0.3628 ± 0.0011
9,GTCCAATA,-0.21 ± 0.0092
10,GAAGGGCC,-0.286 ± 0.023
11,GAGACGCA,-0.229 ± 0.031
12,CAGTGAAC,-0.0221 ± 0.0075
13,GTAACCAA,-0.0232 ± 0.059
14,ACTTTCAA,-0.0407 ± 0.011
15,GATAAGAC,-0.129 ± 0.037
16,GACGTAAA,-0.0969 ± 0.059
17,GCCTGCGC,-0.115 ± 0.052
18,ACACCGGA,0.0969 ± 0.082
19,CGGTGGAC,-0.204 ± 0.011
20,GATGTGAC,0.308 ± 0.017
21,CACTCGAG,0.04 ± 0.028
22,GATCGATC,-0.186 ± 0.047
